Measured values reported in PubChem BioAssay AID1508624 (National Center for Advancing Translational Sciences (NCATS), 2021).
Among all 48,000 compounds or so, about 120 (0.25%) were called active. Inconclusive results (about 4%) are left out. Calls come from the whole dose curve; as a rule, active = well fitted activation curve with a large enough effect; inconclusive = small, poorly fitted or top-dose-only effect, or another doubt; inactive = no such curve, though single readings can be large or run the other way. The list shows a part of the results.

Assay: Primary qHTS for Identification of Small Molecule Activators of Huntingtin-Antisense Promoter Activity; note: nearly all actives have a fitted effect of over 55% in size
Details: HEK293 HTT-AS promoter firefly luciferase reporter (activity 0% = vehicle and -100% = no light), 24 h; series mostly up to 57.5 µM; activity change, positive = activation: at the top concentration
Procedure, shortened: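 HEK293 cells carrying firefly luciferase reporters were seeded at 2,500 per well in Opti-MEM and cultured for 24 h. They were then treated with compounds at up to 57.5 uM final for 24 h at 37 degrees C before Dual-Glo luminescence readout.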

Activity change, positive = activation, inactive:
Cc1cccc(NC(=O)c2oc3ccccc3c2NC(=O)Cc2coc3c(C)c(C)ccc23)c1 6.18%
CCC(C(=O)Nc1cc(Cl)ccc1OC)n1nc(-c2ccccc2)ccc1=O (centres undefined) -36.6%
CCOC(=O)C1=C(CS(=O)(=O)c2cccc(C(F)(F)F)c2)NC(=O)NC1c1cccc(OC)c1 (centres undefined) -25.3%
CC(C)c1ccc(NC(=O)C2CCCN(S(=O)(=O)c3cccc4cccnc34)C2)cc1 (centres undefined) 3.78%
COC(=O)c1c(-c2ccc(Cl)cc2)noc1N1CCN(c2ccc(C)cc2C)CC1 -16.2%
CCOC(=O)Cc1ccc(NC(=O)N2CCOc3ccc(C)cc32)cc1 -6.36%
COc1ccc(OC)c(NC(=O)c2noc3c2CCCC3)c1 29.2%
CCOC(=O)c1cc(S(=O)(=O)N2CCN(c3ccccc3)CC2)[nH]n1 -22.8%
Cc1ccc(OC(C)C(=O)Nc2nonc2-c2ccc(Br)cc2)cc1C (centres undefined) -11.8%
Cc1ccc2nc(N(Cc3cccnc3)C(=O)COc3ccccc3)sc2c1 35.8%
CCOC(=O)Cn1c(=O)oc2cc(S(=O)(=O)N3CCN(c4cccc(C)c4C)CC3)ccc21 -11.5%
O=C(Cn1cc(C(=O)c2ccco2)c2ccccc21)Nc1ccc(Br)cc1 -5.51%
O=C(CSc1ccccc1)N1CCc2c([nH]c3ccccc23)C1c1ccc(F)cc1 (centres undefined) -27.4%
CC1CCN(S(=O)(=O)c2cn(CC(=O)Nc3cccc(C(F)(F)F)c3)c(=O)c3ccccc23)CC1 -28.2%
CSc1ncc2c(n1)-c1ccccc1N(Cc1ccc(Cl)cc1)S2(=O)=O -1.05%
CCOC(=O)c1cnn(-c2ccc(C(=O)Nc3cc(OC)c(OC)c(OC)c3)cc2)c1N -16.7%
COc1cccc(C(=O)Nc2cccc(C(=O)OCc3cc(=O)n4nc(C5CC5)sc4n3)c2)c1 22.1%
Nc1c(-c2nc(-c3cccs3)no2)nnn1-c1ccc(Cl)cc1 15.8%
CCn1c(C(=O)NCCc2ccc(OC)c(OC)c2)cc2sc(Cl)cc21 -27.4%
CCC1CCCCN1C(=O)Cn1c(=O)n(CCCCCC(=O)NCc2ccccc2)c(=O)c2sccc21 (centres undefined) 1.58%
CSc1ncc(Cl)c(C(=O)Nc2ccc(NC(C)=O)cc2)n1 -18.3%
CCCCNc1nc(Oc2ccc(OCC)nn2)nc(N2CCOCC2)n1 13.5%
COc1ccc(Cl)cc1NC(=O)c1c(NCc2ccc(C)o2)sc2c1CCCCC2 -14.6%
CCCn1c2ccccc2c2cnn(CC(=O)N(C)c3ccc(F)cc3)c(=O)c21 -26.5%
COc1cccc(CSc2nc3ccccc3c3nc(CCn4c(C)nc5ccccc54)nn23)c1 -18.3%
CN(C)CCN(C)C(=O)c1ccc(NC(=O)Nc2ccc(-c3nc(N4CCOCC4)c4ccn(CC(F)(F)F)c4n3)cc2)cc1 -46.8%
COc1ccccc1CNC(=O)C1CCCN(c2nc3ccccc3n3cccc23)C1 (centres undefined) -45.7%
O=C(C1CC1)N1CCc2cc(Br)cc(S(=O)(=O)N3CCN(c4cccc(C(F)(F)F)c4)CC3)c21 -10.2%
COc1ccc(Cl)cc1C(=O)Nc1sc2c(c1C(=O)OC(C)C)CCCC2 12.1%
CCCCOc1ccc(-c2nn(-c3ccccc3)cc2C2NC(=O)NC(C)=C2C(=O)OC)cc1 (centres undefined) -20%
CC(=O)N1CCc2cc(Br)cc(S(=O)(=O)N3CCN(c4cccc(C(F)(F)F)c4)CC3)c21 6.6%
CCCCN(C)c1nc2c(S(=O)(=O)c3ccc(CC)cc3)nnn2c2ccc(Cl)cc12 17.1%
COc1ccccc1NC(=O)C1=C(C)Nc2c(C(=O)Nc3ccc(F)cc3)cnn2C1c1cccc([N+](=O)[O-])c1 (centres undefined) -24.5%
COc1cc(C(CC(=O)NCc2ccc(F)cc2)N2Cc3ccccc3C2=O)cc(OC)c1OC (centres undefined) -25.5%
COc1ccc(NC(=O)Cn2c(=O)n(-c3ccc(OC)c(OC)c3)c(=O)c3ccccc32)cc1 -18.3%
Cc1noc(/C=C/c2cccs2)c1S(=O)(=O)N1CCC(C(=O)Nc2ccc(F)c(Cl)c2)CC1 -37.8%
CC(=O)c1ccc(N2CCN(c3ncnc4c3c(-c3ccccc3)cn4-c3cccc(C)c3)CC2)cc1 -15.5%
COc1ccc(C(F)(F)F)cc1NC(=O)c1sc2nc(-c3cccs3)ccc2c1N 11.1%
CCOC(=O)c1ccc(NC(=O)c2c(-c3c(F)cccc3Cl)noc2C)cc1 -23.2%
CCC(=O)N1CCc2cc(Br)cc(S(=O)(=O)N3CCC(C(=O)NCCCOC(C)C)CC3)c21 2.81%
Cc1cccc(N2CCN(c3ncnc4c3nc3n4CCCCC3)CC2)c1C -32.7%
CCOc1ccc(NC(=O)c2ccc(NC(=O)N3CCSc4ncccc43)cc2)cc1 -20.2%
COC(=O)c1ccccc1NC(=O)c1ccc(COc2ccccc2Cl)o1 18%
COc1ccc(C2CC(=O)c3cc(-c4nc(-c5cccc(Cl)c5)cs4)c(=O)[nH]c3C2)cc1OC (centres undefined) -6.78%
NC(N)=NC(N)=NCCc1ccccc1
CCc1ccccc1N1C(=O)N(Cc2ccc(C#N)cc2)c2ccccc2S1(=O)=O -37.8%
CC(C)Sc1oc(-c2cccs2)nc1S(=O)(=O)c1ccc(Cl)cc1 -7.62%
Cc1ccc(CNC(=O)c2ccc(Cn3c(=O)c4ccccc4n(CC(=O)Nc4ccc(C)cc4C)c3=O)cc2)cc1 -2.18%
CCOc1ccc(OCC)c(NS(=O)(=O)c2cc(-c3cc(C)no3)ccc2C)c1 -7.38%
CCOc1ccc(S(=O)(=O)NCCc2sc3nc(-c4ccc(F)cc4)nn3c2C)cc1 -30.5%
CCOc1ccc(CCNC(=O)c2cn(CC)c3ccc(S(=O)(=O)N4CCc5ccccc5C4)cc3c2=O)cc1OCC -19.1%
O=C(Nc1ccccc1-c1cn2c(CN3CCNCC3)csc2n1)c1cnc2ccccc2n1 -17%
CCn1c2ccccc2c2cc(CN3CCN(Cc4ccccc4F)CC3)ccc21 -18.3%
CCOc1ccccc1NC(=O)C(=O)NCCc1sc(-c2cccc(F)c2)nc1C -6.34%
COc1ccc(-c2cc(C(F)(F)F)nc(S(=O)(=O)CCCC(=O)Nc3cccc(O)c3)n2)cc1OC -41.7%
CCc1ccc(NCc2cc3cc4c(cc3n(CC(=O)Nc3ccc(C)cc3)c2=O)OCO4)cc1 -7.65%
CCOc1ccc(NC(=O)C2CCCN(S(=O)(=O)c3cccc4nonc34)C2)cc1 (centres undefined) -3.83%
CC(=O)c1ccc(NC(=O)CSc2nnc3ccc(-c4ccc(Cl)cc4)nn23)cc1 -0.305%
Cc1oc2ncnc(N3CCCCC3)c2c1C(=O)N1CCN(c2cccc(C(F)(F)F)c2)CC1 -32.7%
